Reference: the supplement of paper PMC8047034
Counter-ions that a name gives are not always drawn. Some of the results follow. Most values come without repeats; read them as rough.

Key:
OVCAR4 = assay: log2 surviving fraction (library drug vs vehicle, or drug + carboplatin vs carboplatin alone; relative to plate median); ovarian cancer lines: OVCAR4 is platinum-sensitive and Ov4Carbo platinum-resistant; higher = more cell survival; details: library drug concentration 10 µM, 7 days
Ov4Carbo = assay: as above; details: library drug concentration 10 µM, 7 days

Row | SMILES | log2 surviving fraction (OVCAR4; carboplatin co-treatment 0 µM) | log2 surviving fraction (OVCAR4; carboplatin co-treatment 5 µM) | log2 surviving fraction (Ov4Carbo; carboplatin co-treatment 0 µM) | log2 surviving fraction (Ov4Carbo; carboplatin co-treatment 5 µM)
1 | C=CC[C@@H]1/C=C(\C)C[C@H](C)C[C@H](OC)[C@H]2O[C@@](O)(C(=O)C(=O)N3CCCC[C@H]3C(=O)O[C@H](/C(C)=C/[C@@H]3CC[C@@H](O)[C@H](OC)C3)[C@H](C)[C@@H](O)CC1=O)[C@H](C)C[C@@H]2OC [FK-506 (Tacrolimus)] | -1.11 | 1.58 | -0.0473 | -1.65
2 | CCC[S+]([O-])c1ccc2[nH]c(NC(=O)OC)nc2c1 (stereo not drawn) [Albendazole Oxide (Ricobendazole)] | -2.04 | -1.64 | -1.88 | -0.706
3 | CN(C)c1cc(NC(=O)CNC(C)(C)C)c(O)c2c1C[C@H]1C[C@H]3[C@H](N(C)C)C(O)=C(C(N)=O)C(=O)[C@@]3(O)C(O)=C1C2=O [Tigecycline] | -0.0249 | -0.0865 | 0.912 | 0.488
4 | CN1CCC[C@H]1c1cccnc1 [Nicotine Ditartrate] | 0.781 | -0.0735 | 0.976 | 1.43
5 | CN(C)CCCN1c2ccccc2Sc2ccc(Cl)cc21 [Chlorpromazine (Sonazine)] | -2.2 | -1.01 | -2.64 | -2.63
6 | CC(=O)Nc1ccccc1 [Acetanilide (Antifebrin)] | -0.381 | -0.135 | 0.253 | 0.746
7 | CC[C@H]1OC(=O)[C@H](C)[C@@H](O[C@H]2C[C@@](C)(OC)[C@@H](O)[C@H](C)O2)[C@H](C)[C@@H](O[C@@H]2O[C@H](C)C[C@H](N(C)C)[C@H]2O)[C@](C)(O)C[C@@H](C)[C@@H]2N[C@@H](COCCOC)O[C@H]([C@H]2C)[C@]1(C)O [Dirithromycin] | -0.0909 | 0.216 | -0.0802 | -0.0274
8 | O=C(O)CCNC(=O)c1ccccc1 [Betamipron] | 0.45 | -0.207 | -0.307 | -0.724
9 | Fc1ccc(C(c2ccc(F)cc2)N2CCN(C/C=C/c3ccccc3)CC2)cc1 [Flunarizine 2HCl] | -1.43 | -2.35 | -1.66 | -2.85
10 | Oc1ccc(/C=C/c2cc(O)cc(O)c2)cc1 [Resveratrol] | -1.79 | -4.02 | -2.4 | -4.37
11 | O=P(O)(O)C(O)(Cn1ccnc1)P(=O)(O)O [Zoledronic Acid (Zoledronate)] | 0.0759 | 1.28 | 0.324 | 0.275
12 | Oc1ccc(OCc2ccccc2)cc1 [Monobenzone (Benoquin)] | -4.27 | -4.61 | -4.02 | -4.73
13 | CCCCC1(COC(=O)CCC(=O)O)C(=O)N(c2ccccc2)N(c2ccccc2)C1=O [Suxibuzone] | 0.756 | -0.356 | 0.355 | 0.172
14 | COC(=O)Nc1nc2cc(Sc3ccccc3)ccc2[nH]1 [Fenbendazole (Panacur)] | -7.08 | -5.61 | -4.91 | -4.39
15 | CC(=O)[C@H]1CC[C@H]2[C@@H]3C=CC4=CC(=O)CC[C@@]4(C)[C@@H]3CC[C@]12C [Dydrogesterone] | 0.626 | -0.486 | 0.456 | 0.865
16 | CCCCCCCCCCCCCCCC(=O)O[C@@H]1[C@@H](O)[C@@H](O)[C@@H]([C@H](NC(=O)[C@@H]2C[C@@H](CCC)CN2C)[C@H](C)Cl)O[C@@H]1SC [Clindamycin palmitate HCl] | -0.211 | 0.0465 | 0.169 | 0.211
17 | Nc1nc(O)c2ncn(CCC(CO)CO)c2n1 [Penciclovir] | -0.182 | 0.209 | -0.359 | 0.459
18 | C=CC1=C(C(=O)O)N2C(=O)[C@@H](NC(=O)/C(=N\O)c3csc(N)n3)[C@H]2SC1 [Cefdinir (Omnicef)] | 1.02 | -0.0956 | 1.04 | 0.000482
19 | C#C[C@]1(O)CC[C@H]2[C@@H]3CCC4=CC(=O)CC[C@]4(C)[C@H]3CC[C@@]21C [Ethisterone] | -0.734 | -0.4 | 0.285 | 0.106

Row | SMILES | log2 surviving fraction (OVCAR4; carboplatin co-treatment 0 µM) | log2 surviving fraction (OVCAR4; carboplatin co-treatment 5 µM) | log2 surviving fraction (Ov4Carbo; carboplatin co-treatment 0 µM) | log2 surviving fraction (Ov4Carbo; carboplatin co-treatment 5 µM)
20 | CC(C)[C@H](N)C(=O)OCCOCn1cnc2c(=O)nc(N)[nH]c21 [Valaciclovir HCl] | 0.0606 | 0.407 | 0.175 | -0.344
21 | Clc1ccc(C(Cn2ccnc2)OCc2ccsc2Cl)c(Cl)c1 (stereo not drawn) [Tioconazole] | -1.62 | -0.322 | -1.63 | -2.69
22 | CCCCCCCCOc1ccccc1C(=O)Nc1ccc(C(=O)OCC[N+](C)(CC)CC)cc1 [Otilonium Bromide] | 0.877 | 0.73 | 0.44 | 0.526
23 | CCOc1cc(CC(=O)N[C@@H](CC(C)C)c2ccccc2N2CCCCC2)ccc1C(=O)O [Repaglinide] | -3.52 | 0.668 | 1.19 | 0.851
24 | Cc1ncc([N+](=O)[O-])n1CCO [Metronidazole (Flagyl)] | -0.262 | 0.113 | 0.324 | 0.239
25 | C[C@@H]1[C@H](O)[C@@H](C)/C=C/C=C/C=C/C=C/C=C/C=C/C=C/[C@H](O[C@@H]2O[C@H](C)[C@@H](O)[C@H](N)[C@@H]2O)C[C@@H]2O[C@](O)(C[C@@H](O)C[C@@H](O)[C@H](O)CC[C@@H](O)C[C@@H](O)CC(=O)O[C@H]1C)C[C@H](O)[C@H]2C(=O)O [Amphotericin B (Abelcet)] | 0.851 | 0.151 | 0.568 | -0.471
26 | CN(C)CCc1c[nH]c2ccc(CS(=O)(=O)N3CCCC3)cc12 [Almotriptan malate (Axert)] | -0.135 | 0.256 | -0.134 | 0.604
27 | Cc1c(OCC(F)(F)F)ccnc1C[S@@+]([O-])c1nc2ccccc2[nH]1 [Dexlansoprazole] | -0.987 | -0.629 | -1.34 | -0.602
28 | C=CC[C@]1(O)CC[C@H]2[C@@H]3CCC4=CC(=O)CCC4=C3C=C[C@@]21C [Altrenogest] | -0.823 | -0.839 | -2.18 | -1.72
29 | O=C(NCCN1CCOCC1)c1ccc(Cl)cc1 [Moclobemide] | -1.91 | -2.22 | 0.444 | -0.487
30 | CCC(=O)OCC(=O)[C@@]1(OC(=O)CC)[C@@H](C)C[C@H]2[C@@H]3CCC4=CC(=O)C=C[C@]4(C)[C@@]3(F)[C@@H](O)C[C@@]21C [Betamethasone Dipropionate (Diprolene)] | -1.05 | 0.24 | 1.25 | 0.501
31 | CC(C)OC(=O)C(C)(C)Oc1ccc(C(=O)c2ccc(Cl)cc2)cc1 [Fenofibrate (Tricor, Trilipix)] | -2.62 | -1.19 | -2.26 | 0.275
32 | Cc1cc(C)nc(NS(=O)(=O)c2ccc(N)cc2)n1 [Sulfamethazine] | 0.243 | 0.183 | -0.348 | -0.444
33 | COc1ccc2cc1Oc1ccc(cc1)C[C@H]1c3c(cc4c(c3Oc3cc5c(cc3OC)CCN(C)[C@@H]5C2)OCO4)CCN1C [Cepharanthine] | -6.59 | -5.72 | -6.47 | -6.54
34 | CC(/C=C1\SC(=S)N(CC(=O)O)C1=O)=C\c1ccccc1 [Epalrestat] | 0.151 | 0.572 | 0.241 | 0.477
35 | COC(=O)/C=C/C(=O)OC [Dimethyl Fumarate] | 0.339 | 0.271 | 0.742 | 0.455
36 | CC(C)C(=O)Nc1ccc([N+](=O)[O-])c(C(F)(F)F)c1 [Flutamide (Eulexin)] | -0.636 | -0.304 | -0.206 | -0.25
37 | Cc1ccc2c(Cl)cc(Cl)c(O)c2n1 [Chlorquinaldol] | -6.94 | -6.21 | -6.54 | -6.59
